The RNAGym collection of RNA variant scans (doi:10.7554/elife.90254)
Read counts are not given, so values of variants with three or more changes are uncertain.

B1: LINE1-mini (parent)
chain: GGCAGAGCUCAACACAGCGUGGCAAAGUGGCUGUGGCUAGACUGCC

Variants of: B1
Test: self-cleavage, relative activity (ratio to wild type); higher = more cleavage; in vitro, sequencing; the parent is a self-cleaving ribozyme

| Variant | self-cleavage |
| --- | --- |
| C10U G40U U43C | 0.06 |
| U9C C31U C42G | 0.01 |
| G2A A14G G19C G33C G44C | 0.01 |
| C3G A16U C31U G44U | 0.1 |
| G2U A4G G17C G29U G30U G36A G40A | 0.04 |
| G2U C3U A11G G17A A26G U32A | 0.01 |
| A4G U9G G33C | 0.02 |
| C10U C23A A26C | 0.19 |
| G7A A14C G36U U38G | 0 |
| G19A A25C A26C C42A | 0.44 |
| G7A A11U A14G A16C G29A U34A | 0.01 |
| G2C A26C U34G | 0.01 |
| C15U U34A C45U | 0.11 |
| A4U C18U U20C | 0.06 |
| C3A A6G C15U C37U A41U | 0.14 |
| C3U U9A G17A A25G G30A | 0.09 |
| G1A A6C G21A A24G C31U U32C C37A C45A | 0.02 |
| G1U C3A G30U | 0.87 |
| A14C G35A G44C | 0.01 |
| G19U A26U C31U U34A C37A | 0.03 |
| G2A C3G C8U C18A G19U | 1.21 |

| Variant | self-cleavage |
| --- | --- |
| C13U C23U A26G U32G U34A C45G | 0.02 |
| G1A G21A A24C A26C | 0.12 |
| C3U C37U C42A | 0.03 |
| G33C C37A U38C | 0.03 |
| G2C C18U U32A | 0 |
| C15G C18G G22C C45G | 0.02 |
| G1C G5C G17A G19A G29A G40U | 0.08 |
| A4C C37U C46A | 0.09 |
| A4C G7U C13U C15A U32A | 0.11 |
| C3A A16U G21A A39U | 0.01 |
| A16C C23G U32C | 0.04 |
| G2U G19C A24U | 0.16 |
| A4G G5C C37U | 0.07 |
| A6U C13U C31A A41U | 0.14 |
| C8U G21U C42U | 0.26 |
| G5C C13U G19U C42A | 0.01 |
| C8G G17U G19A G27A G35A A41C G44C | 0.02 |
| A11G A12U U28C G29U | 0.02 |
| G7A C13G C42A | 0.2 |
| U20C U28C C37U | 0.02 |
| A12U A26C G35U | 0.08 |

| Variant | self-cleavage |
| --- | --- |
| G5C G17U C42U | 0.06 |
| G19A G21U G22C G36U U38G | 0.03 |
| G1C A6C G19A G33U | 0.07 |
| A4C G5U A6G C37A U43A | 0.14 |
| C13G G19C C31U | 0.01 |
| A4G C10A A25G | 0.01 |
| C3U G21C C45A | 0.11 |
| G7C C10A A14G G17U U20G G22U | 0.02 |
| G1A G29U G33A | 0.1 |
| G5A C13U C18U C31A U38C | 0.01 |
| C23U C31A G40C C42G G44C | 0.01 |
| A4C C13G G40C C42A | 0.28 |
| A12U A16U C18A G35C | 0.02 |
| C18G C23A G35A | 0.03 |
| C18U G19A C23A C37G | 0 |
| C18U A26U G29C C46U | 0.27 |
| G2U C10G A11U | 0.02 |
| C10U C13U C23U G40U | 0.01 |
| A6C G30C U34A | 0.05 |
| G17C U20A A24U C31G | 0.15 |
| C8U A16C G17U U34C | 0.12 |

| Variant | self-cleavage |
| --- | --- |
| G2C U9G C13G | 0.02 |
| G5A C18U G44U C45U | 0.03 |
| G21A G22U G27C C46G | 0.82 |
| G1C G5A G21U A24G U28C U43C G44A | 0.01 |
| C3G C31A C45A C46A | 0.02 |
| G2A A12U C15A G35C C46U | 0.06 |
| C15U G19A G29U U38A | 1.51 |
| C8A U20G G30A | 0.21 |
| A11C A25U U34G C42A | 0.01 |
| A14C U20C G21U | 0.05 |
| G5U U20G G22A C46U | 0.09 |
| A12U C13U C23A | 0.07 |
| G5U U32G G35C A41U | 0.05 |
| C18U G19C G35A A41U C46U | 0.06 |
| C8G A14C G29U | 0.02 |
| G7C G22C G33A A41U | 0.19 |
| U9A A16G G36C | 0.01 |
| A11G C18U G21U | 0.02 |
| C3U G5A U9A C10A A12G G33A C45A | 0.03 |
| U20G G29U G33C A39G | 0.02 |
| C10G C23A G30U G40C | 0.01 |
